According to the supplement of paper PMC10037445:
± gives the standard deviation of the averaged measurements. The full ranking holds about 2,900 compounds; the median of “NF-kB SEAP reporter activity, fold change vs agonist alone” is about 0.99, and the highest 2% start at about 2.6. Some of the results follow.

Key:
RAW-Dual [1] = assay: NF-kB SEAP reporter activity, fold change vs agonist alone; higher = enhanced NF-kB activity; conditions: library stock concentration (final ~1000-fold dilution): 10 mM
How it was run: (§1)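 Cytotoxic wells were those whose IncuCyte confluency was below 70% of agonist controls in both mask sets. The cells were RAW-Dual macrophages at 50,000 cells/well in DMEM on 384-well plates, dosed with 50 nL of library stock by pin tool, stimulated with a PRR agonist 1 h later, and kept at 37 °C, 5% CO2 for 20 hours. IRF and NF-κB reporter activity, as fold change over agonist-alone wells, came from supernatant read by QuantiLuc luminescence and QuantiBlue absorbance, respectively.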

RAW-Dual [2] = assay: NF-kB SEAP reporter activity, fold change vs agonist alone; cytotoxicity flag (confluency mask): not cytotoxic; higher = enhanced NF-kB activity
How it was run: as §1

RAW-Dual [3] = assay: NF-kB SEAP reporter activity, fold change vs agonist alone; cytotoxicity flag (confluency mask): cytotoxic (confluency <70% of control); higher = enhanced NF-kB activity
How it was run: as §1

[4] = cytotoxicity flag (confluency mask): not cytotoxic, agonist: Imiquimod (TLR7) […]
[5] = cytotoxicity flag (confluency mask): not cytotoxic, agonist: MPLA (TLR4) […]
[6] = agonist: ODN 1826 (TLR9) 0.5 ug/mL
[7] = agonist: Pam2CSK4 (TLR2/6) 0.1 ug/mL
[8] = agonist: Pam3CSK4 (TLR2/1) 0.1 ug/mL
[9] = cytotoxicity flag (confluency mask): cytotoxic (confluency <70% of control), agonist: Imiquimod (TLR7) […]
[10] = cytotoxicity flag (confluency mask): cytotoxic (confluency <70% of control), agonist: MPLA (TLR4) […]

`CCOC(=O)c1[nH]c2cc(Cl)ccc2c1C(C(=O)NC(C)(C)C)N(C=O)Cc1ccc(Cl)cc1` (stereo not drawn) was tested, and the “NF-kB SEAP reporter activity” value (RAW-Dual [1]; [4]) was 0.883 and the “NF-kB SEAP reporter activity” value (RAW-Dual [1]; [5]) was 1.5.

With `CCOC(=O)c1[nH]c2cc(Cl)ccc2c1C(C(=O)NC(C)(C)C)N(C=O)Cc1ccc(Cl)cc1` (stereo not drawn) (library stock concentration (final ~1000-fold dilution): 10 mM) the “NF-kB SEAP reporter activity” value (RAW-Dual [2]; agonist: LPS (TLR4) 0.1 ug/mL) was 2.05, the “NF-kB SEAP reporter activity” value (RAW-Dual [2]; [6]) was 0.873 and the “NF-kB SEAP reporter activity” value (RAW-Dual [2]; [7]) was 0.569. For the same molecule, the “NF-kB SEAP reporter activity” value (RAW-Dual [2]; [8]) was 0.348.

In the case of `CCCCN1CCCCC1C(=O)Nc1c(C)cccc1C` (stereo not drawn) (library stock concentration (final ~1000-fold dilution): 10 mM), the “NF-kB SEAP reporter activity” value (RAW-Dual [2]; agonist: LPS (TLR4) 0.1 ug/mL) is reported as 1.12, the “NF-kB SEAP reporter activity” value (RAW-Dual [2]; [6]) is reported as 0.908 and the “NF-kB SEAP reporter activity” value (RAW-Dual [2]; [7]) is reported as 0.898. For the same molecule, the “NF-kB SEAP reporter activity” value (RAW-Dual [2]; [8]) was 1.01.

In the case of `CCCCN1CCCCC1C(=O)Nc1c(C)cccc1C` (stereo not drawn), the “NF-kB SEAP reporter activity” value (RAW-Dual [1]; [4]) is reported as 0.941 and the “NF-kB SEAP reporter activity” value (RAW-Dual [1]; [5]) is reported as 1.06.

In the case of `CC(=O)OC1(C(C)=O)CCC2C3C=C(C)C4=CC(=O)CCC4(C)C3CCC21C` (stereo not drawn), the “NF-kB SEAP reporter activity” value (RAW-Dual [1]; [4]) is reported as 1.21 and the “NF-kB SEAP reporter activity” value (RAW-Dual [1]; [5]) is reported as 1.14.

For `CC(=O)OC1(C(C)=O)CCC2C3C=C(C)C4=CC(=O)CCC4(C)C3CCC21C` (stereo not drawn) (library stock concentration (final ~1000-fold dilution): 10 mM), the “NF-kB SEAP reporter activity” value (RAW-Dual [2]; agonist: LPS (TLR4) 0.1 ug/mL) was 0.908, the “NF-kB SEAP reporter activity” value (RAW-Dual [2]; [6]) was 1.22 and the “NF-kB SEAP reporter activity” value (RAW-Dual [2]; [7]) was 1.13. For the same molecule, the “NF-kB SEAP reporter activity” value (RAW-Dual [2]; [8]) was 1.27.

`Cc1noc(C)c1-c1ccc(-c2cc(C(N)=O)c(NC(N)=O)s2)c(O[C@H]2CCNC2)c1` was tested, and the “NF-kB SEAP reporter activity” value (RAW-Dual [1]; [4]) was 0.638 and the “NF-kB SEAP reporter activity” value (RAW-Dual [1]; [5]) was 0.763.

In the case of `Cc1noc(C)c1-c1ccc(-c2cc(C(N)=O)c(NC(N)=O)s2)c(O[C@H]2CCNC2)c1` (library stock concentration (final ~1000-fold dilution): 10 mM), the “NF-kB SEAP reporter activity” value (RAW-Dual [2]; agonist: LPS (TLR4) 0.1 ug/mL) is reported as 0.649, the “NF-kB SEAP reporter activity” value (RAW-Dual [2]; [6]) is reported as 0.571 and the “NF-kB SEAP reporter activity” value (RAW-Dual [2]; [7]) is reported as 0.32. For the same molecule, the “NF-kB SEAP reporter activity” value (RAW-Dual [2]; [8]) was 0.407.

For `CC#CC1(O)CCC2C3CCC4=CC(=O)CCC4=C3C(c3ccc(N(C)C)cc3)CC21C` (stereo not drawn), the “NF-kB SEAP reporter activity” value (RAW-Dual [1]; [4]) was 1.07 and the “NF-kB SEAP reporter activity” value (RAW-Dual [1]; [5]) was 1.15.

In the case of `CC#CC1(O)CCC2C3CCC4=CC(=O)CCC4=C3C(c3ccc(N(C)C)cc3)CC21C` (stereo not drawn) (library stock concentration (final ~1000-fold dilution): 10 mM), the “NF-kB SEAP reporter activity” value (RAW-Dual [2]; agonist: LPS (TLR4) 0.1 ug/mL) is reported as 1.02, the “NF-kB SEAP reporter activity” value (RAW-Dual [2]; [6]) is reported as 0.694 and the “NF-kB SEAP reporter activity” value (RAW-Dual [2]; [7]) is reported as 0.415. The “NF-kB SEAP reporter activity” value (RAW-Dual [2]; [8]) was 0.549.

`CCCCCCCc1ccc(CCc2cccc(O)c2C(=O)O)cc1` was tested, and the “NF-kB SEAP reporter activity” value (RAW-Dual [1]; [9]) was 1.19 and the “NF-kB SEAP reporter activity” value (RAW-Dual [1]; [10]) was 0.916.

`CCCCCCCc1ccc(CCc2cccc(O)c2C(=O)O)cc1` (library stock concentration (final ~1000-fold dilution): 10 mM) was tested, and the “NF-kB SEAP reporter activity” value (RAW-Dual [3]; agonist: LPS (TLR4) 0.1 ug/mL) was 0.6, the “NF-kB SEAP reporter activity” value (RAW-Dual [3]; [6]) was 0.944 and the “NF-kB SEAP reporter activity” value (RAW-Dual [3]; [7]) was 0.826. For the same molecule, the “NF-kB SEAP reporter activity” value (RAW-Dual [3]; [8]) was 0.663.

In the case of `CC(C)(Sc1ccncc1-c1ccc(C#N)c2ccccc12)C(=O)O`, the “NF-kB SEAP reporter activity” value (RAW-Dual [1]; [4]) is reported as 0.92 and the “NF-kB SEAP reporter activity” value (RAW-Dual [1]; [5]) is reported as 1.

With `CC(C)(Sc1ccncc1-c1ccc(C#N)c2ccccc12)C(=O)O` (library stock concentration (final ~1000-fold dilution): 10 mM) the “NF-kB SEAP reporter activity” value (RAW-Dual [2]; agonist: LPS (TLR4) 0.1 ug/mL) was 1.08, the “NF-kB SEAP reporter activity” value (RAW-Dual [2]; [6]) was 0.917 and the “NF-kB SEAP reporter activity” value (RAW-Dual [2]; [7]) was 1.02. For the same molecule, the “NF-kB SEAP reporter activity” value (RAW-Dual [2]; [8]) was 1.04.

In the case of `CC(C)(C)S(=O)(=O)c1ccc2nccc(Nc3n[nH]c4ccc(F)cc34)c2c1` (library stock concentration (final ~1000-fold dilution): 10 mM), the “NF-kB SEAP reporter activity” value (RAW-Dual [2]; agonist: LPS (TLR4) 0.1 ug/mL) is reported as 1.07 ± 0.071, the “NF-kB SEAP reporter activity” value (RAW-Dual [2]; [6]) is reported as 0.928 ± 0.1 and the “NF-kB SEAP reporter activity” value (RAW-Dual [2]; [7]) is reported as 0.7208 ± 0.0011. For the same molecule, the “NF-kB SEAP reporter activity” value (RAW-Dual [2]; [8]) was 1.1 ± 0.022.

With `CC(C)(C)S(=O)(=O)c1ccc2nccc(Nc3n[nH]c4ccc(F)cc34)c2c1` the “NF-kB SEAP reporter activity” value (RAW-Dual [1]; [4]) was 0.893 ± 0.12 and the “NF-kB SEAP reporter activity” value (RAW-Dual [1]; [5]) was 0.869 ± 0.056.

For `CC=C1C(=O)CC2C3CCC4=CC(=O)CCC4(C)C3CCC12C` (stereo not drawn) (library stock concentration (final ~1000-fold dilution): 10 mM), the “NF-kB SEAP reporter activity” value (RAW-Dual [2]; agonist: LPS (TLR4) 0.1 ug/mL) was 0.69, the “NF-kB SEAP reporter activity” value (RAW-Dual [2]; [6]) was 0.408 and the “NF-kB SEAP reporter activity” value (RAW-Dual [2]; [7]) was 0.841. For the same molecule, the “NF-kB SEAP reporter activity” value (RAW-Dual [2]; [8]) was 0.508.

`CC=C1C(=O)CC2C3CCC4=CC(=O)CCC4(C)C3CCC12C` (stereo not drawn) was tested, and the “NF-kB SEAP reporter activity” value (RAW-Dual [1]; [4]) was 0.402 and the “NF-kB SEAP reporter activity” value (RAW-Dual [1]; [5]) was 1.04.

`CC(C)c1cc2c(N3CCN(C4=NCC(C)(C)S4)CC3)ncnc2s1` was tested, and the “NF-kB SEAP reporter activity” value (RAW-Dual [1]; [4]) was 0.617 and the “NF-kB SEAP reporter activity” value (RAW-Dual [1]; [5]) was 1.02.

For `CC(C)c1cc2c(N3CCN(C4=NCC(C)(C)S4)CC3)ncnc2s1` (library stock concentration (final ~1000-fold dilution): 10 mM), the “NF-kB SEAP reporter activity” value (RAW-Dual [2]; agonist: LPS (TLR4) 0.1 ug/mL) was 1.4, the “NF-kB SEAP reporter activity” value (RAW-Dual [2]; [6]) was 0.898 and the “NF-kB SEAP reporter activity” value (RAW-Dual [2]; [7]) was 0.929. For the same molecule, the “NF-kB SEAP reporter activity” value (RAW-Dual [2]; [8]) was 0.898.

In the case of `CCC1OC(=O)C(C)C(OC2CC(C)(OC)C(O)C(C)O2)C(C)C(OC2OC(C)CC(N(C)C)C2O)C(C)(OC)CC(C)C(=O)C(C)C(O)C1(C)O` (stereo not drawn), the “NF-kB SEAP reporter activity” value (RAW-Dual [1]; [4]) is reported as 0.947 and the “NF-kB SEAP reporter activity” value (RAW-Dual [1]; [5]) is reported as 0.96.

For `CCC1OC(=O)C(C)C(OC2CC(C)(OC)C(O)C(C)O2)C(C)C(OC2OC(C)CC(N(C)C)C2O)C(C)(OC)CC(C)C(=O)C(C)C(O)C1(C)O` (stereo not drawn) (library stock concentration (final ~1000-fold dilution): 10 mM), the “NF-kB SEAP reporter activity” value (RAW-Dual [2]; agonist: LPS (TLR4) 0.1 ug/mL) was 0.99, the “NF-kB SEAP reporter activity” value (RAW-Dual [2]; [6]) was 0.929 and the “NF-kB SEAP reporter activity” value (RAW-Dual [2]; [7]) was 0.942. For the same molecule, the “NF-kB SEAP reporter activity” value (RAW-Dual [2]; [8]) was 0.932.

For `Cc1cncc(CN2CCC(=C3c4ccc(Cl)cc4CCc4cccnc43)CC2)c1.O=C(O)/C=C/C(=O)O`, the “NF-kB SEAP reporter activity” value (RAW-Dual [1]; [9]) was 1.02 and the “NF-kB SEAP reporter activity” value (RAW-Dual [1]; [10]) was 0.719.

`Cc1cncc(CN2CCC(=C3c4ccc(Cl)cc4CCc4cccnc43)CC2)c1.O=C(O)/C=C/C(=O)O` (library stock concentration (final ~1000-fold dilution): 10 mM) was tested, and the “NF-kB SEAP reporter activity” value (RAW-Dual [3]; agonist: LPS (TLR4) 0.1 ug/mL) was 0.652, the “NF-kB SEAP reporter activity” value (RAW-Dual [3]; [6]) was 0.37 and the “NF-kB SEAP reporter activity” value (RAW-Dual [3]; [7]) was 0.456. For the same molecule, the “NF-kB SEAP reporter activity” value (RAW-Dual [3]; [8]) was 0.408.

With `COc1cccc(CCc2ccccc2OCC(CN(C)C)OC(=O)CCC(=O)O)c1.Cl` (stereo not drawn) the “NF-kB SEAP reporter activity” value (RAW-Dual [1]; [4]) was 1.22 and the “NF-kB SEAP reporter activity” value (RAW-Dual [1]; [5]) was 1.03.

`COc1cccc(CCc2ccccc2OCC(CN(C)C)OC(=O)CCC(=O)O)c1.Cl` (stereo not drawn) (library stock concentration (final ~1000-fold dilution): 10 mM) was tested, and the “NF-kB SEAP reporter activity” value (RAW-Dual [2]; agonist: LPS (TLR4) 0.1 ug/mL) was 1.33, the “NF-kB SEAP reporter activity” value (RAW-Dual [2]; [6]) was 0.733 and the “NF-kB SEAP reporter activity” value (RAW-Dual [2]; [7]) was 1.03. The “NF-kB SEAP reporter activity” value (RAW-Dual [2]; [8]) was 0.924.
